Test results published in PubChem BioAssay AID504333 (National Center for Advancing Translational Sciences (NCATS), 2011).
The whole screen tested about 360,000 compounds, of which about 16,000 (4.4%) were called active. The shares of active, inactive and inconclusive entries below differ from those in the screen. The call rests on the fitted dose curve; in most records, active means well fitted inhibition curve with a large enough effect; inconclusive means small, poorly fitted or top-dose-only effect; inactive means no such curve, though single readings can be large or run the other way. Potencies beside an inconclusive call are fits to weak or partial responses and may not hold up.

Molecular target: Bromodomain adjacent to zinc finger domain protein 2B (Homo sapiens) (UniProt Q9UIF8)
Sequence of UniProt Q9UIF8 (Q9UIF8 whole entry, looked up, the tested form may be a part): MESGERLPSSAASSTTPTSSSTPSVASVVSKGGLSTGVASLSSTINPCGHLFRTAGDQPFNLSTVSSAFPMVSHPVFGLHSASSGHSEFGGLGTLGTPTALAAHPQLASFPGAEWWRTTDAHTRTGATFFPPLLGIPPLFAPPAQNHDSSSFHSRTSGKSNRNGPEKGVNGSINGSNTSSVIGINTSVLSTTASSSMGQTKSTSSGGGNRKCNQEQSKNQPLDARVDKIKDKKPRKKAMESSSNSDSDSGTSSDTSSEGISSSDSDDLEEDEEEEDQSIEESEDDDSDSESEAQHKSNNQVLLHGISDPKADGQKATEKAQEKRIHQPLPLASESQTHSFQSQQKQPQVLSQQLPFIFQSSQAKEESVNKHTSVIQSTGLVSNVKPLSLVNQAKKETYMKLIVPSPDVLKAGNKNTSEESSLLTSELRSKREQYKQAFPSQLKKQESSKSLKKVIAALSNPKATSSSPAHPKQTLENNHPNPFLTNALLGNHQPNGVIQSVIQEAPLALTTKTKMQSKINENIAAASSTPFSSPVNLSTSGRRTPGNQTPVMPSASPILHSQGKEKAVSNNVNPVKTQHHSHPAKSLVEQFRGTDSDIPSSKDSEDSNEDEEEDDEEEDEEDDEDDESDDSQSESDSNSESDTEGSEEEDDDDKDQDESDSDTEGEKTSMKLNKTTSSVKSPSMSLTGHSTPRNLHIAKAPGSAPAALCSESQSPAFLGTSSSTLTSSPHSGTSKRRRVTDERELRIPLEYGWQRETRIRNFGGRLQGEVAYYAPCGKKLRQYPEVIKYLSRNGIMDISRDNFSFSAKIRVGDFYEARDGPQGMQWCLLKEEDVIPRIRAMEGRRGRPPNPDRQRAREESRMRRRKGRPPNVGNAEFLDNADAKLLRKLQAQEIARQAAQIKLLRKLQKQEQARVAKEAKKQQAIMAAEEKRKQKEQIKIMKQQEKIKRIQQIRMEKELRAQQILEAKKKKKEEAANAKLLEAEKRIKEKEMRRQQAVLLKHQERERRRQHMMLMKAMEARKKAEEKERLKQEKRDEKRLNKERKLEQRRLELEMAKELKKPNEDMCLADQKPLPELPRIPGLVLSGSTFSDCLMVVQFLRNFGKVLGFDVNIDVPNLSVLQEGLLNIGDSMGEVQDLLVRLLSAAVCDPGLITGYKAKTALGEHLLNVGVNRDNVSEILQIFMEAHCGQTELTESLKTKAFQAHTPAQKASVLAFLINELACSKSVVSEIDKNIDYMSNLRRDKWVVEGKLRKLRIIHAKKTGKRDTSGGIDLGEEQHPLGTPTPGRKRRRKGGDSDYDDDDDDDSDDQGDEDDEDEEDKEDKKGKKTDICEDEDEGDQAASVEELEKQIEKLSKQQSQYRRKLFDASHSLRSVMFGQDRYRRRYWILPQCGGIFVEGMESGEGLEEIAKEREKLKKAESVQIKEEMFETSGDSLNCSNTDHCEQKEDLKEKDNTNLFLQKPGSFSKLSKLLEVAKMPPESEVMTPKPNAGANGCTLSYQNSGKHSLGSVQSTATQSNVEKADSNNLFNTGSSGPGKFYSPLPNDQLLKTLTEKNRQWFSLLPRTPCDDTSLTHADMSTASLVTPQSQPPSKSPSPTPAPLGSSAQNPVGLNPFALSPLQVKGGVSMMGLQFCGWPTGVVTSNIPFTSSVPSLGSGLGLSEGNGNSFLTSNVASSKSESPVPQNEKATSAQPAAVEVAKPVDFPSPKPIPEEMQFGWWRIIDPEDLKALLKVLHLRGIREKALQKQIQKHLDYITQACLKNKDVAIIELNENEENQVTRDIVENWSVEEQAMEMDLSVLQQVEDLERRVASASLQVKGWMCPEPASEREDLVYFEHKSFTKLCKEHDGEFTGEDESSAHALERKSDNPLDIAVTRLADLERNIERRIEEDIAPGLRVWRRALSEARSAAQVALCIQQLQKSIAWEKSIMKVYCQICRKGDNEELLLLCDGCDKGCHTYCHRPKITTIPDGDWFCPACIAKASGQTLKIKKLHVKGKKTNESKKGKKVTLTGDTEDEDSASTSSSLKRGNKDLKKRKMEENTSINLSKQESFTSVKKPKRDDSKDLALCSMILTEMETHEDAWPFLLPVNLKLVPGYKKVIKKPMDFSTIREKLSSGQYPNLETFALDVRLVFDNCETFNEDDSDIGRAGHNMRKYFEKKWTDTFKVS
Assay: qHTS Assay for Inhibitors of BAZ2B; further: nearly all actives have a fitted effect of over 60% in size
Details: AlphaScreen BAZ2B-H3K14Ac peptide displacement; activity change, negative = inhibition: at 114 µM (top of the series)
From the text: BAZ2B (bromodomain adjacent to zinc finger domain, 2B) belongs to a family of ubiquitously expressed bromodomain containing proteins, which biological function has not yet been elucidated. […] The interaction of BAZ2B with ISWI mediated by the BAZ1 motif has recently been described. […] The protocol is based on the AlphaScreen (PerkinElmer) displacement assay developed by NCGC [5], but uses the peptide ligand Biot-H3K14Ac, a high affinity binding partner for BAZ2B, in an AlphaScreen format. Although AlphaScreen has significant advantages with its utility in a variety of epigenetic target assays, the primary screening data provided in this deposition should be used with caution due to the prevalence of screening artifacts. The top compound concentration tested was 110uM in this assay, which increases number of actives and potential artifacts. An AlphaScreen counterscreen is highly recommended to be run against any putative actives to eliminate non-specific artifacts. Alternatively, one can use other AlphaScreen assays in PubChem to filter out promiscuous hits. Eberharter, A. et al. ACF1 improves the effectiveness of nucleosome mobilization by ISWI through PHD-histone contacts. The EMBO journal 23, 4029-4039. 2004. PMID: 15457208 [2] Jones, M.H. et al. A novel family of bromodomain genes. Genomics 63, 40-45. 2000. PMID: 10662543 [3] Yasgar, et al. Compound Management for Quantitative High-Throughput Screening. JALA. 2008 Apr;13(2):79-89. PMID: 18496600 [4] Inglese, et al. Quantitative high-throughput screening: a titration-based approach that efficiently identifies biological activities in large chemical libraries. Proc Natl Acad Sci. 1;103(31):11473-8. 2006. PMID: 16864780 [5] Quinn et al. A chemiluminescence-based method for identification of histone lysine methyltransferase inhibitors. Mol Biosyst 6(5): 782-8. 2010. PMID: 20567762 [6] Baell,Holloway. New substructure filters for removal of pan assay interference compounds (PAINS) from screening libraries and for their exclusion in bioassays. J Med Chem. 53(7):2719-40. 2010. PMID: 20131845 NIH Molecular Libraries Probe Production Network [MLPCN] NIH Chemical Genomics Center [NCGC] Structural Genomics Consortium (SGC) NIH Grant: 5U54 MH084681-02
To each well of a 1,536w plate, 2ul of BAZ2B protein (final 50nM) and 1ul biotinylated histone peptide acetylated at Lys14 [b-H3(5-23)K14Ac] (final 50nM) were added in 1x PBS buffer, pH 7.4, containing 0.01% Tween-20, using a nanoliter dispenser. Formation of a protein-peptide complex proceeded at room temperature for 30 min. A Kalypsys pin-tool was employed to transfer 23 nL of library compound solution in DMSO to each well. Following a 30 min incubation of the protein-peptide complex with compounds at room temperature, a mixture of 40 ug/mL each streptavidin-coated donor and nickel chelate acceptor AlphaScreen beads (final 10 ug/mL) were added in a 1ul dispense for a final volume of 4ul. A brief centrifugation followed (1000rpm, 1 min) and were then incubated protected from the light for 20 min at room temperature. Plates were read on an EnVision multilabel plate reader using the 1,536 plate HTS AlphaScreen aperture (excitation time 80 ms, measurement time 240 ms).
On the % scale 0 is the no-effect control and ±100 the full control effect; potency means the concentration at half of the fitted maximal effect; tags describe the fitted curve by direction and shape.

| SMILES | Potency | activity change, negative = inhibition |
| --- | --- | --- |
| COc1ccc(N2CCN(C(=O)CCn3nc(C)c(S(=O)(=O)N4CCCC4)c3C)CC2)cc1 | inconclusive: 12.6 µM [inhibitor, partial curve] |  |
| O=C(N[C@@H](Cc1c[nH]c2ccccc12)C(=O)O)OCC1c2ccccc2-c2ccccc21 | inconclusive: 89.1 µM [inhibitor, single point] |  |
| CCN(CC)C(=O)c1c(-c2ccccc2)c(-c2ccccc2)nn(C)c1=O |  | inactive: -1.76% |
| CCc1ccc(C(=O)c2cn(CC(=O)Nc3cc(C)ccc3C)c3nc(C)ccc3c2=O)cc1 |  | inactive: -1.52% |
| CCOC(=O)c1ccc2c(c1)[n+](CC)c(C)n2-c1ccccc1 | inconclusive: 89.1 µM [inhibitor, single point] |  |
| Cc1ccc(N2C(=O)c3ccccc3C2C(=O)c2ccc(O)cc2O)cc1 (configuration not stated) | active: 28.2 µM |  |
| CCCCc1ccc(N=N/C(C(=O)Nc2ccccc2OC)=C(/C)O)cc1 | inconclusive: 7.94 µM [inhibitor, full curve, poor fit] |  |
| COc1ccc(-c2nnn(CC(=O)N(CC(=O)NC3CCCC3)Cc3ccco3)n2)cc1OC |  | inactive: -29.2% |
| CC(=O)N1CCOc2ccc(S(=O)(=O)N(C)c3cccc(C)c3)cc21 | inconclusive: 79.4 µM [inhibitor, partial curve] |  |
| O=C(CN1CCN(Cc2ccccc2)CC1)Nc1ccc(F)c(F)c1 | inconclusive: 70.8 µM [inhibitor, single point] |  |
| CCOP(=O)(c1ccccc1)c1nc(-c2ccccc2C)oc1N1CCCCC1 (configuration not stated) | inconclusive: 89.1 µM [inhibitor, single point] |  |
| COc1cccc(CN(C)C(=O)c2ccc(N3CCCC3)c([N+](=O)[O-])c2)c1 | inconclusive: 50.1 µM [inhibitor, partial curve] |  |
| Cc1ccccc1C(=O)NCCCCc1ccccc1 |  | inactive: -2.78% |
| O=S(=O)(Nc1nc2c(s1)CCCC2)c1ccc2ccccc2c1 | inconclusive: 89.1 µM [inhibitor, single point] |  |
| COc1ccc(Cl)cc1NC(=O)Nc1cc(C)on1 | inconclusive: 50.1 µM [inhibitor, partial curve] |  |
| Cc1ccc(Cn2nc(C)c(C(=O)NCC(c3cccs3)N3CCOCC3)c2Cl)cc1 (configuration not stated) |  | inactive: -5.32% |
| Cc1ccc(/C=N/NC(=O)c2cc(C3CC3)nc3ccccc23)o1 | inconclusive: 79.4 µM [inhibitor, single point] |  |
| Cc1ccc2nc(N3CCC(C(=O)N4CCN(c5cccc(Cl)c5)CC4)CC3)[nH]c2c1 | active: 70.8 µM |  |
| CCCc1nn(C(=O)c2ccccc2)c2c1C(=O)CC(C)(C)C2 | inconclusive: 35.5 µM [inhibitor, full curve, poor fit] |  |
| Cc1ccc(C)c(NC(=S)NNc2ccc(F)cc2F)c1 | active: 20 µM |  |
| O=C1C(=O)c2c(C(=O)c3ccccc3)coc2-c2ccccc21 | inconclusive: 70.8 µM [inhibitor, single point] |  |
| CC1=CC(C)(C)N2C(=O)C(=O)c3cc(OC(=O)c4ccco4)cc1c32 | active: 35.5 µM |  |
| O=C(CSc1ccccn1)Nc1ccc2[nH]c(=O)[nH]c2c1 |  | inactive: -4.06% |
| NNC(=O)C(=O)/C=C1\NC2(CCCC2)Cc2ccccc21 | inconclusive: 56.2 µM [inhibitor, partial curve] |  |

| SMILES | Potency | activity change, negative = inhibition |
| --- | --- | --- |
| Cc1ccc(-c2nnc(Nc3cccc(O)c3)c3ccccc23)cc1S(=O)(=O)N1CCOCC1 |  | inactive: -13.2% |
| CS(=O)(=O)c1cccc(C(=O)Nc2nnc(C3=COCCO3)o2)c1 | active: 17.8 µM |  |
| CCOC(=O)C1=C(C)N=c2s/c(=C3/C(=O)Nc4ccccc43)c(=O)n2C1c1ccc(C)cc1 (configuration not stated) | inconclusive: 1.58 µM [inhibitor, full curve, poor fit] |  |
| COc1ccc(N2CCN(C(=O)c3ccc(CS(=O)Cc4ccc(Cl)cc4)o3)CC2)cc1 (configuration not stated) | inconclusive: 50.1 µM [inhibitor, partial curve] |  |
| COc1ccccc1-c1nc(S(=O)(=O)c2ccc(Cl)cc2)c(N(C)C)o1 | inconclusive: 89.1 µM [inhibitor, single point] |  |
| CC(C(=O)NC1C=CS(=O)(=O)C1)N1C(=O)/C(=C/c2cccc(Cl)c2)SC1=S (configuration not stated) | inconclusive: 44.7 µM [inhibitor, partial curve] |  |
| COc1ccc(NC(=O)CCn2c(=O)c3cccn3c3cccnc32)c(OC)c1 | inconclusive: 79.4 µM [inhibitor, single point] |  |
| Cn1c(=O)c2c(nc(NCc3ccco3)n2Cc2ccc(Cl)cc2Cl)n(C)c1=O | inconclusive: 89.1 µM [inhibitor, single point] |  |
| COc1ccc(CCNc2nc(-c3sc(C)nc3C)cs2)cc1OC | active: 31.6 µM |  |
| COc1ccc(OC)c(NC(=O)Nc2nnc(N3CCCCC3C)s2)c1 (configuration not stated) | inconclusive: 22.4 µM [inhibitor, full curve] |  |
| COc1ccc(C(=O)Nc2ccc3ccccc3n2)c(OC)c1OC | inconclusive: 89.1 µM [inhibitor, single point] |  |
| O=C(O)[C@@H]1Cc2c([nH]c3ccccc23)C2CCC(=O)N21 (some centres not stated) | inconclusive: 89.1 µM [inhibitor, single point] |  |
| COc1ccc(OC)c(NC(=O)CSc2nnc3ccc4ccccc4n23)c1 |  | inactive: -11.6% |
| O=C(O)/C=C/C(=O)NCCc1cccc(Cl)c1 |  | inactive: 3.95% |
| O=C(NCc1ccccc1Cl)c1ccc(CSCc2ccccc2Cl)o1 |  | inactive: 6.81% |
| COc1ccc(CNC(=O)c2cc3cccc(O)c3oc2=N)cc1 | inconclusive: 89.1 µM [inhibitor, partial curve] |  |
| Cn1c(SCc2ccc([N+](=O)[O-])cc2)nc2c(c1=O)SCC2 | inconclusive: 89.1 µM [inhibitor, single point] |  |
| CC1CCCCC1NC(=O)Cn1c(=O)oc2cc(S(=O)(=O)N3CCCC3)ccc21 (configuration not stated) | inconclusive: 100 µM [inhibitor, single point] |  |
| CC(N=Cc1nc(-c2ccccc2)oc1O)c1ccccc1 (configuration not stated) | inconclusive: 50.1 µM [inhibitor, partial curve] |  |
| COc1ccc(NC(=O)C2=C(C)Nc3nc(SCc4ccccc4C)nn3C2c2cc(OC)c(O)c(OC)c2)cc1 (configuration not stated) | active: 79.4 µM |  |
| CCN(C(=O)C1CCCN(S(=O)(=O)c2c(C)noc2/C=C/N(C)C)C1)c1cccc(C)c1 (configuration not stated) |  | inactive: -33.7% |
| CCc1nc2oc3cc(OC)ccc3c(=O)c2c(=O)n1Cc1ccco1 | active: 56.2 µM |  |
| COc1ccc(NC(=S)NNC(=S)Nc2cccc(C(F)(F)F)c2)cc1 | inconclusive: 50.1 µM [inhibitor, partial curve] |  |
| CC(C)(C)c1cc(CCC(=O)NCc2cccnc2)cc(C(C)(C)C)c1O | inconclusive: 56.2 µM [inhibitor, partial curve] |  |

| SMILES | Potency | activity change, negative = inhibition |
| --- | --- | --- |
| COc1ccc(CNc2nc3ccccc3n2C(C)C)c(O)c1 | inconclusive: 79.4 µM [inhibitor, single point] |  |
| CCOC(=O)c1ccc(Nc2nc(N3CCOCC3)nc(N3CCOCC3)n2)cc1 | inconclusive: 89.1 µM [inhibitor, single point] |  |
| COc1cccc(/C=C2\SC(N3CCCC(C)C3)=NC2=O)c1OC (configuration not stated) |  | inactive: -17.2% |
| CCOC(=O)c1ccc(NC(=O)CC2C(=O)OCCN2CC)cc1 (configuration not stated) | inactive |  |
| Nc1ccc2c(c1)-c1ccccc1S(=O)(=O)N2 | inconclusive: 89.1 µM [inhibitor, single point] |  |
| COc1cc(C)ccc1NC(=O)Cc1csc(NC(=O)Nc2ccccc2OC)n1 | inconclusive: 39.8 µM [inhibitor, partial curve] |  |
| Cc1ccc2nc(/C(C#N)=C\c3ccc(N4CCCCC4)c([N+](=O)[O-])c3)[nH]c2c1 | active: 44.7 µM |  |
| CCc1ccc(CN(Cc2ccco2)c2cnc(S(C)(=O)=O)nc2C(=O)Nc2ccccc2Cl)cc1 | inconclusive: 56.2 µM [inhibitor, partial curve, poor fit] |  |
| COc1ccc(F)cc1S(=O)(=O)Nc1ccc2c(c1)OCCO2 |  | inactive: -1.03% |
| Cc1cc(OC(=O)c2ccccc2C(F)(F)F)c([N+](=O)[O-])c(=O)[nH]1 | inconclusive: 100 µM [inhibitor, single point] |  |
| COCCN1C=C2C(=O)C(C)(OC(=O)CCc3ccccc3)C(=O)C=C2C=C1c1ccc(C#N)cc1 (configuration not stated) | inconclusive: 79.4 µM [inhibitor, single point] |  |
| CNC(=S)N/N=C/c1ccc(-c2ccc(Cl)c([N+](=O)[O-])c2)o1 | active: 79.4 µM |  |
| Cc1ccc(SCc2ccc(C(=O)NCc3ccncc3)cc2)cc1 | inconclusive: 79.4 µM [inhibitor, single point] |  |
| COC(=O)CSc1nc2c(c(-c3ccco3)c1C#N)CCCC2 | active: 28.2 µM |  |
| O=C(COc1ccc(Cl)cc1)Nc1ccccc1Cl |  | inactive: 17.8% |
| CCOc1ccc(S(=O)(=O)N2CCN(Cc3ccco3)CC2)cc1 | inconclusive: 79.4 µM [inhibitor, single point] |  |
| Nc1ccc2nn(-c3cccc4ccccc34)nc2c1 | inconclusive: 50.1 µM [inhibitor, partial curve] |  |
| COc1ccc(-c2nc(-c3ccc4c(c3)OCO4)[nH]c2-c2ccc(OC)cc2)cc1 | active: 17.8 µM |  |
| O=[N+]([O-])c1ccc(OCCO)nc1 |  | inactive: 2.26% |
| Cc1cc(C(F)(F)F)nn1CC(=O)NCc1ccco1 | inconclusive: 89.1 µM [inhibitor, single point] |  |
| O=S(=O)(c1ccccc1)N1CCN(Cc2cccc(Cl)c2)CC1 | active: 31.6 µM |  |
| COc1cccc(N=Cc2c(O)c3ccccc3oc2=O)c1 |  | inactive: -6.38% |
| CC1CN(c2oc(COc3ccc(Cl)cc3Cl)nc2C#N)CC(C)O1 (configuration not stated) | active: 35.5 µM |  |
| CSc1cccc(CNC(=O)C2CCC(=O)N(CCCN3CCCC3=O)C2)c1 (configuration not stated) |  | inactive: -2.59% |
